Data reported in PubChem BioAssay AID485294 (National Center for Advancing Translational Sciences (NCATS), 2010).
In all, about 370,000 compounds went through this assay and about 150 (0.041%) were called active. Inconclusive means that the source gave no clear call. Such entries were picked first, then a sample of the others. Calls follow the shape of the dose curve; as a rule, active = well fitted inhibition curve with a large enough effect; inconclusive = small, poorly fitted or top-dose-only effect; inactive = flat fitted curve, though single readings scatter. Potencies of inconclusive entries are left out as doubtful fits.

target: Beta-lactamase (Escherichia coli (strain K12)) (UniProt P00811); assay: qHTS Inhibitors of AmpC Beta-Lactamase (assay with detergent); settings: AmpC hydrolysis of nitrocefin, absorbance 480 nm, 0.01% Triton; activity change, negative = inhibition: at 114 µM (top of the series); also: nearly all actives have a fitted effect of over 25% in size;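 as to activity change, negative = inhibition: 0% = no-compound wells and -100% = no-enzyme wells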
Summary of the method: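 20 mM phosphate pH 7.0 + 0.01% (detergent screen) or 0.0001% Triton X-100; 5.3 nM AmpC reagent; cpd preinc 15 min RT; nitrocefin (800 uM stock) to start; A480 q20 s × 4 min; Activity was normalised to no-enzyme and no-compound control wells.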
Potency is read from the fitted curve at half-maximal effect; tags tell the direction and shape of the fitted curve.

Chain of UniProt P00811 (P00811 whole entry, looked up): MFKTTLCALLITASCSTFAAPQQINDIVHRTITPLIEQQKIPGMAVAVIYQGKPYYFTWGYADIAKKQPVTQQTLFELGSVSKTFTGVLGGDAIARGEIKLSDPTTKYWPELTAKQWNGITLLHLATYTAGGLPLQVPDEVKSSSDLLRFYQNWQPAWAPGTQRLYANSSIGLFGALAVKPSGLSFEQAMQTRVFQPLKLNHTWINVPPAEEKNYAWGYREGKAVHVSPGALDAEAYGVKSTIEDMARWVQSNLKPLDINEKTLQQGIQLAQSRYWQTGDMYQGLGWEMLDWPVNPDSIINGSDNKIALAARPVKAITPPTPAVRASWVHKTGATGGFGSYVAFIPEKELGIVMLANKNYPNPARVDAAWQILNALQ

Structure (SMILES)	Potency	activity change, negative = inhibition
COc1ccccc1N1CCN(CCOc2c(OC)cccc2OC)CC1	inconclusive [inhibitor, full curve, poor fit]	
CS(=O)(=O)Nc1ccc(C(=O)NC2CC3CCC2C3)cc1 (stereo unspecified)	inconclusive [inhibitor, single point]	
COc1ccc(OCCCC(=O)NCCc2ccc(OC)c(OC)c2)cc1	inconclusive [inhibitor, partial curve, poor fit]	
Cc1nnc(SCC(=O)NCc2ccc3c(c2)OCO3)[nH]c1=O	inconclusive [inhibitor, partial curve, poor fit]	
Cn1c(N)c(C(=O)COC(=O)CCC(=O)c2cccs2)c(=O)n(C)c1=O	inconclusive [inhibitor, partial curve]	
CC1(C)Oc2nc3ccccc3n2/C1=C\C#N	inconclusive [inhibitor, full curve]	
NC(Cc1cccc2nsnc12)C(=O)O (stereo unspecified)	inconclusive [inhibitor, full curve]	
Cc1ccc2c(c1)CCCN2C(=O)c1ccoc1C	inconclusive [inhibitor, partial curve, poor fit]	
COC(=O)c1c(Oc2ccc(Br)cc2)nnc(-c2ccccc2)c1-c1ccccc1		inactive: 18.3%
CCNC(=S)NNC(=O)c1c(Cl)c(C)nn1C		inactive: -7.6%
COc1ccc(CN2CCCCCC2)cc1	inconclusive [inhibitor, partial curve, poor fit]	
CCn1ccnc1CNC(=O)c1ccc(OC2CCN(C(=O)COC)CC2)cc1	inconclusive [inhibitor, full curve, poor fit]	
CN(c1ccccc1)S(=O)(=O)c1cccc(NC(=O)Cc2ccc(Cl)cc2)c1	inconclusive [inhibitor, full curve, poor fit]	
CCCc1cc(-n2ccnc2)n2c(nc3ccccc32)c1C#N	inconclusive [inhibitor, partial curve, poor fit]	
Cc1ccc(-n2cc(CNC(C)c3cnn(C)c3)c(-c3ccc(F)cc3)n2)cc1 (stereo unspecified)		inactive: -7.5%
CCc1nnc2c3ccccc3nc(N3CCN(c4cc(Cl)ccc4C)CC3)n12		inactive: -7.19%
OCC1(Cc2ccc(F)cc2)CCCN(CCCC(F)(F)F)C1 (stereo unspecified)	inconclusive [inhibitor, full curve]	
CC(=O)Nc1ccc2nc(SCCOc3ccccc3Cl)sc2c1		inactive: 2.69%
Cc1ccc(NC(=O)c2cc(-c3ccc(F)cc3)on2)cc1C		inactive: -0.588%
N#CCSc1ccc2nc(-c3ccccc3)cn2n1		inactive: -9.97%
C/C(=N/NC(=O)c1cc(-c2cccc([N+](=O)[O-])c2)n[nH]1)c1ccc(Cl)cc1	inconclusive [inhibitor, full curve, poor fit]	
Oc1ccc2ccccc2c1/C=N/Nc1ccccc1	inconclusive [inhibitor, partial curve]	
O=C(COC(=O)c1cnccn1)c1ccc2ccccc2c1	inconclusive [inhibitor, full curve]	

Structure (SMILES)	Potency	activity change, negative = inhibition
O=C(N1CCOCC1)C(F)(F)C(=O)N1CCOCC1	inconclusive [inhibitor, partial curve]	
O=C(/C=C/C=C/c1ccccc1)c1ccco1		inactive: -8.83%
COc1ccc(OC)c(C(C)NC(C)=O)c1 (stereo unspecified)	inconclusive [inhibitor, partial curve, poor fit]	
O=C(NCCc1ccccc1)C1CCN(C(=O)c2sccc2-n2cccc2)CC1	inconclusive [inhibitor, full curve, poor fit]	
O=S(=O)(Nc1cccc(-c2cn3cccnc3n2)c1)c1ccc(F)cc1		inactive: -0.127%
CCN1CCN(c2ccc(S(=O)(=O)N3CCOCC3)cc2NC(=O)c2sccc2C)CC1	inconclusive [inhibitor, full curve, poor fit]	
CCCCN(Cc1cccs1)S(=O)(=O)c1csc(C(N)=O)c1		inactive: 2.97%
CCOC(=O)c1c(NC(NC(=O)CF)C(Cl)(Cl)Cl)sc2c1CCCC2 (stereo unspecified)	inconclusive [inhibitor, partial curve, poor fit]	
ON=C1c2cc(OCCN3CCCCC3)ccc2-c2ccc(OCCN3CCCCC3)cc21		inactive: -1.78%
Cc1cc(C)n(-c2ccc(C(=O)OCc3ccccc3)cc2)n1	inconclusive [inhibitor, full curve, poor fit]	
Cc1cc(C)n(CC(=O)c2ccc(Br)cc2)c(=O)c1C#N	inconclusive [inhibitor, full curve, poor fit]	
C=CCN1C(=O)c2ccc(C(=O)N(CC)CC(=O)Nc3ccc(OC)cc3)cc2C1=O	inconclusive [inhibitor, single point]	
Cn1ncc2c(NNC(=O)Cc3ccccc3)ncnc21		inactive: -10%
CCCc1nc(-c2ccc(-c3ccc(F)cc3)cc2)no1	inconclusive [inhibitor, full curve, poor fit]	
CCOC(=O)C(NC(C)=O)C(=O)Nc1ccc(C(C)C)cc1 (stereo unspecified)		inactive: 2.48%
O=C(NCCO)c1ccc(Cl)c(Cl)c1		inactive: -2.13%
COc1cccc(NC(=O)Cn2c(=O)oc3ccccc32)c1	inconclusive [inhibitor, full curve]	
CC(=O)Nc1ccc(OC/C=C(\C)Cl)cc1	inconclusive [inhibitor, full curve, poor fit]	
CCOC(=O)Cn1c(=O)oc2cc(S(=O)(=O)Nc3ccccc3F)ccc21	inconclusive [inhibitor, single point]	
Cc1oc2c(C)c3oc(=O)c(CCC(=O)N4CCCCC4)c(C)c3cc2c1C	inconclusive [inhibitor, full curve, poor fit]	
Cc1cc(C(=O)CSc2nc3ccccc3o2)c(C)n1CC1CCCO1 (stereo unspecified)		inactive: -2.67%
CC(C)(C)c1ccc(C(=O)Nc2nnc3n2CCS3)cc1		inactive: 1.94%
CCNC(=S)NNC(=O)c1cc(C2CC2)nc2ccccc12	inconclusive [inhibitor, partial curve, poor fit]	
